{
  "source": "paper PMC4336329",
  "about": "(PLoS ONE, 2015)",
  "note": "About 2,200 (0.71%) of roughly 310,000 compounds showed an effect of 50% or more. Effects have a minus sign here. This is one part of the list.",
  "data": [
    {"biological_target": "human ether-à-go-go-related gene (hERG) potassium channel (human, UniProt Q12809)", "sequence (Q12809 whole entry, looked up)": "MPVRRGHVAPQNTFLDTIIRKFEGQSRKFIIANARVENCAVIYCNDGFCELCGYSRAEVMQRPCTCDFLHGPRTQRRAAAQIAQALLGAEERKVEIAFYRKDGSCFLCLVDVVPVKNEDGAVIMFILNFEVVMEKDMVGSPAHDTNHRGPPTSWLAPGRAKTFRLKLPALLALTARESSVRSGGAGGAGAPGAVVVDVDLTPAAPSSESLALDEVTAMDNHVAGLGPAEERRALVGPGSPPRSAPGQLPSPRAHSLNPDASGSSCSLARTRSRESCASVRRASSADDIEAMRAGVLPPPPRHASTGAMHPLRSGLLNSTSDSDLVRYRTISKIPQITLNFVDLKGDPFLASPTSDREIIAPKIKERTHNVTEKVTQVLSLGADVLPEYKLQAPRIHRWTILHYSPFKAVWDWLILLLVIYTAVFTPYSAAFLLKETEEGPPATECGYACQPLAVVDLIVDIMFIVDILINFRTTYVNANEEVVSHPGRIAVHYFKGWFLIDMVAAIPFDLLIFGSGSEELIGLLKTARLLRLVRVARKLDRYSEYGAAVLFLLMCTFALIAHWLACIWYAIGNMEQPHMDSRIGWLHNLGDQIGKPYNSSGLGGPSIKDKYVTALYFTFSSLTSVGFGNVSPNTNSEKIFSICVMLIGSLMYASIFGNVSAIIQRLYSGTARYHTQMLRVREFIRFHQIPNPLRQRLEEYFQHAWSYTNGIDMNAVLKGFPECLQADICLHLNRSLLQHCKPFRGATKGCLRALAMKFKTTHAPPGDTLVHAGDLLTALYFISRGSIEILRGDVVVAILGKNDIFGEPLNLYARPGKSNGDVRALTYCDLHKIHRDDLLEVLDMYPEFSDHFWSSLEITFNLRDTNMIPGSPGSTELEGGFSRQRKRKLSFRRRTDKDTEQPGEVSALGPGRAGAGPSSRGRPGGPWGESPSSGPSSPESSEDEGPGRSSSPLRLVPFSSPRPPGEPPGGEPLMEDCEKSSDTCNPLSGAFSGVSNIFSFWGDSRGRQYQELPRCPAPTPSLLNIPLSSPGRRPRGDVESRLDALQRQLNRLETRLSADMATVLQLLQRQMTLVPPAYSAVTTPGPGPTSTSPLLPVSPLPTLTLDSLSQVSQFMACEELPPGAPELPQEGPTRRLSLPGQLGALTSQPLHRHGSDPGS", "assay": "primary screen, population patch clamp on CHO cells stably expressing hERG", "units": {"hERG current change (%, negative = inhibition) at 1uM": "%"}, "values": [
      {"molecule": "COc1ccc(CNC(=O)CCCNS(=O)(=O)c2cccc3nonc23)cc1", "hERG current change (%, negative = inhibition) at 1uM": 7.35},
      {"molecule": "CCc1c(C)nc(N2CCN(c3ccc(F)cc3)CC2)[nH]c1=O", "hERG current change (%, negative = inhibition) at 1uM": 17},
      {"molecule": "CCC(=O)c1ccc(OC(=O)N(C)c2ccccc2)cc1", "hERG current change (%, negative = inhibition) at 1uM": 14.5},
      {"molecule": "CC(C)(C)c1ccc(OCCCNC2CCCC2)cc1.O=C(O)C(=O)O", "hERG current change (%, negative = inhibition) at 1uM": -12.8},
      {"molecule": "CCOC(=O)C1CCN(C(=O)COC(=O)CCOc2ccc(C)cc2)CC1", "hERG current change (%, negative = inhibition) at 1uM": 4.66},
      {"molecule": "CCOC(=O)c1ccc2nc(C)cc(Nc3cccc(C(=O)O)c3)c2c1", "hERG current change (%, negative = inhibition) at 1uM": 12.8},
      {"molecule": "COc1ccccc1N1CCN(C2=NS(=O)(=O)c3ccccc32)CC1", "hERG current change (%, negative = inhibition) at 1uM": -2.1},
      {"molecule": "N#Cc1ccc(C(=O)CSc2n[nH]c(=O)n2Cc2ccco2)cc1", "hERG current change (%, negative = inhibition) at 1uM": -6.45},
      {"molecule": "O=C(NNc1ccc([N+](=O)[O-])cc1[N+](=O)[O-])c1ccco1", "hERG current change (%, negative = inhibition) at 1uM": 9.64},
      {"molecule": "CC1Cc2ccccc2N1C(=S)NC(=O)C1(C)CC1(Cl)Cl", "note": "(stereo not shown)", "hERG current change (%, negative = inhibition) at 1uM": 6.81},
      {"molecule": "CN1CCN(NC(=O)c2cc(-c3ccc(Cl)s3)nc3ccccc23)CC1", "hERG current change (%, negative = inhibition) at 1uM": 11.9},
      {"molecule": "CCOC(=O)N1CCN(C(=O)Nc2cccc3ccccc23)CC1", "hERG current change (%, negative = inhibition) at 1uM": 7.5},
      {"molecule": "Cc1nc2c(-c3ccc(F)cc3)c(C)nn2c(C)c1CCC(=O)NC(C)CCc1ccco1", "note": "(stereo not shown)", "hERG current change (%, negative = inhibition) at 1uM": -26.8},
      {"molecule": "CCN(CC)C(=O)c1sc(NC(=O)c2ccc(OC)c([N+](=O)[O-])c2)c(C#N)c1C", "hERG current change (%, negative = inhibition) at 1uM": 10.5},
      {"molecule": "Cc1cccc(N2C(=O)c3ccc(C(=O)Nc4c[nH]c(=O)[nH]c4=O)cc3C2=O)c1", "hERG current change (%, negative = inhibition) at 1uM": 15.7},
      {"molecule": "COc1ccc(/C=N/n2cnnc2)cc1Oc1nc(Cl)ncc1F", "hERG current change (%, negative = inhibition) at 1uM": 1.77},
      {"molecule": "CS(=O)(=O)N(Cc1ccccc1)c1ccccc1C(=O)O", "hERG current change (%, negative = inhibition) at 1uM": 16.7},
      {"molecule": "CNC(=O)CN(c1ccc(C23CC4CC(CC(C4)C2)C3)cc1)S(C)(=O)=O", "hERG current change (%, negative = inhibition) at 1uM": 7.92},
      {"molecule": "Cc1ccc(Oc2ccccc2/C=N/O)cc1", "hERG current change (%, negative = inhibition) at 1uM": 5.4},
      {"molecule": "CCCNC(=O)c1c(N)n(-c2ccc3c(c2)OCO3)c2nc3ccccc3nc12", "hERG current change (%, negative = inhibition) at 1uM": 16.2},
      {"molecule": "O=S(=O)(NCc1ccccc1Cl)c1cccs1", "hERG current change (%, negative = inhibition) at 1uM": 10.1},
      {"molecule": "CN(C)/C=C(\\C#N)S(=O)(=O)c1ccccc1", "hERG current change (%, negative = inhibition) at 1uM": 7.33},
      {"molecule": "Cc1cc(Nc2ccccc2Cl)nc(-c2ccccc2O)n1", "hERG current change (%, negative = inhibition) at 1uM": 12.6},
      {"molecule": "COc1ccc(NC(=O)c2cc(-c3ccco3)on2)c(OC)c1", "hERG current change (%, negative = inhibition) at 1uM": 19.4},
      {"molecule": "CCN1CC(CN(C)Cc2cn(-c3ccc(C)cc3)nc2-c2cccc(C)c2)CC1=O", "note": "(stereo not shown)", "hERG current change (%, negative = inhibition) at 1uM": -3.48},
      {"molecule": "Cn1c(=O)c2sccc2n2c(CCCC(=O)N3CCCCC3)nnc12", "hERG current change (%, negative = inhibition) at 1uM": 12.7},
      {"molecule": "CN(C)C(CNC(=O)c1ccccc1C(F)(F)F)c1ccco1", "note": "(stereo not shown)", "hERG current change (%, negative = inhibition) at 1uM": 11.4},
      {"molecule": "CCN1C(=O)CC(N2CCC(C(=O)N3CCOCC3)CC2)C1=O", "note": "(stereo not shown)", "hERG current change (%, negative = inhibition) at 1uM": 7.55},
      {"molecule": "O=C(O)C1C2C=CC(CC2)C1C(=O)O", "note": "(stereo not shown)", "hERG current change (%, negative = inhibition) at 1uM": 15},
      {"molecule": "CCOc1cnc(C(=O)NNC(=O)c2ccccc2Br)o1", "hERG current change (%, negative = inhibition) at 1uM": 11.7},
      {"molecule": "CN(C)/C=C1\\C=C(c2ccccc2)OC1=O", "hERG current change (%, negative = inhibition) at 1uM": 15.4},
      {"molecule": "Cc1cc(NC(=O)Cc2ccccc2)no1", "hERG current change (%, negative = inhibition) at 1uM": 11},
      {"molecule": "COCCn1c(N)c(N(Cc2ccccc2)C(=O)c2ccc(C#N)cc2)c(=O)[nH]c1=O", "hERG current change (%, negative = inhibition) at 1uM": 1.98},
      {"molecule": "O=C(Cc1ccc(-c2ccccc2)cc1)NNC(=S)NCc1ccco1", "hERG current change (%, negative = inhibition) at 1uM": 10.7},
      {"molecule": "Nc1nc(NCc2ccccc2)n(-c2ccccc2)n1", "hERG current change (%, negative = inhibition) at 1uM": 16.4},
      {"molecule": "CCOC(=O)C1=C(C)NC(C)=C(C(=O)OC)C1c1cccc([N+](=O)[O-])c1", "note": "(stereo not shown)", "hERG current change (%, negative = inhibition) at 1uM": -0.602},
      {"molecule": "Cc1ccc(-c2nnn(CC(=O)N(c3ccc(F)cc3)C(C(=O)NC3CCCC3)c3ccco3)n2)o1", "note": "(stereo not shown)", "hERG current change (%, negative = inhibition) at 1uM": 15.7},
      {"molecule": "CC(=O)NC1C(Oc2ccc3c(C)cc(=O)oc3c2)OC(COC(C)=O)C(OC(C)=O)C1OC(C)=O", "note": "(stereo not shown)", "hERG current change (%, negative = inhibition) at 1uM": 16.1},
      {"molecule": "Cc1cc(C(=O)Nc2cccc(C(=O)O)c2)c(C)o1", "hERG current change (%, negative = inhibition) at 1uM": -6.6},
      {"molecule": "Cc1cc(N2CCOCC2)nc(SCC(=O)c2ccc(Cl)cc2)n1", "hERG current change (%, negative = inhibition) at 1uM": 10.9},
      {"molecule": "Cc1cc(C)cc(OCC(=O)Nc2ccc(N3CCCC3)cc2)c1", "hERG current change (%, negative = inhibition) at 1uM": 14.4},
      {"molecule": "COc1ccc(-c2cc(C(F)(F)F)nc(SCCC(=O)N3CCN4CCCC4C3)n2)cc1", "note": "(stereo not shown)", "hERG current change (%, negative = inhibition) at 1uM": 3.75},
      {"molecule": "C#CCn1c(CCNC(=O)c2ccco2)nc2ccccc21", "hERG current change (%, negative = inhibition) at 1uM": 14.7},
      {"molecule": "CN1N=C(C(=O)N2CCc3c([nH]c4ccccc34)C2c2c(F)cccc2Cl)CCC1=O", "note": "(stereo not shown)", "hERG current change (%, negative = inhibition) at 1uM": -20.5},
      {"molecule": "O=c1c2ccccc2ncn1-c1ccc(Cl)cc1Cl", "hERG current change (%, negative = inhibition) at 1uM": 11.9},
      {"molecule": "O=C(NCCc1ccccc1)c1cc(=O)[nH]c2ccccc12", "hERG current change (%, negative = inhibition) at 1uM": 1.99},
      {"molecule": "Cc1ccc(NC(=O)CSc2nnc(CNC(=O)c3cccs3)o2)cc1", "hERG current change (%, negative = inhibition) at 1uM": 14.5},
      {"molecule": "CC1Sc2ccc(C(=O)N3CCCC(C(F)(F)F)C3)cc2NC1=O", "note": "(stereo not shown)", "hERG current change (%, negative = inhibition) at 1uM": 2.77},
      {"molecule": "CC1=Nc2cc(C(=O)NCc3ccco3)ccc2Sc2ccc(C)cc21", "hERG current change (%, negative = inhibition) at 1uM": -4.78},
      {"molecule": "Cc1cc(C)n2nnnc2n1", "hERG current change (%, negative = inhibition) at 1uM": 14.8},
      {"molecule": "CC(C)(C)c1csc(NC(=O)Cn2cnc3ccccc3c2=O)n1", "hERG current change (%, negative = inhibition) at 1uM": 0.854},
      {"molecule": "OCC[C@H]1C[C@H](O)[C@@H](O)[C@]2(CCc3ccccc3O2)O1", "hERG current change (%, negative = inhibition) at 1uM": 10.2},
      {"molecule": "COc1cccc(-c2nnc(SCC(=O)OC(C)C)n2N)c1", "hERG current change (%, negative = inhibition) at 1uM": -2.38},
      {"molecule": "Cc1ccc(C(=O)N/C(=C\\c2sccc2C)C(=O)NCc2ccco2)cc1", "hERG current change (%, negative = inhibition) at 1uM": 11.7},
      {"molecule": "O=C(NC(=S)Nc1ccc2oc(=O)ccc2c1)c1ccccc1F", "hERG current change (%, negative = inhibition) at 1uM": 11.2},
      {"molecule": "c1ccc(CN2CCN(Cc3c[nH]c4ccccc34)CC2)cc1", "hERG current change (%, negative = inhibition) at 1uM": 15.3},
      {"molecule": "COc1ccc(CN2CCC(N3CCC(C(=O)N4CCOCC4)CC3)CC2)c(F)c1", "hERG current change (%, negative = inhibition) at 1uM": 5.73},
      {"molecule": "NNC(=O)c1cc2c(s1)-c1cc(Cl)ccc1SC2", "hERG current change (%, negative = inhibition) at 1uM": 10.8}
    ]}
  ]
}
